# Test results from PubChem BioAssay AID463173 (ICCB-Longwood Screening Facility, Harvard Medical School, 2010).
# Hit rate of the full screen: of about 52,000 compounds, about 4,300 (8.3%) were called active. Cut-off read from the data, not from the text of the source: active = survival mostly below about 52% (no sharp cut-off); inactive = mostly above about 56%. Some of the results follow.
# Tested on: DeltatarO mutant
# Assay: growth inhibition of S. aureus wild type versus tarO mutant, primary screen, teichoic acid synthesis inhibitors, RN4220, OD600 (AID 463173)
# Conditions: OD600, 18 h, stronger effect = lower value, screened at 18.75 µg/mL (by protocol)
row,SMILES,survival
1,NC(=S)NN1N=C(c2ccccc2)CC1=O,inactive: 89%
2,CC(C)c1nnc(NC(=O)c2nc(SCc3ccc(F)cc3)ncc2Cl)s1,active: 24%
3,CCCSc1ncc(Cl)c(C(=O)Nc2sc3c(c2C(=O)NCC)CCCC3)n1,active: 45%
4,COc1ccc(CNC(=O)Cn2nnc(-c3ccccc3F)n2)cc1,inactive: 67%
5,Cc1ccc(-c2nc(S(=O)(=O)c3ccc(Cl)cc3)c(N3CCCCC3)o2)cc1,active: 11%
6,CCCCN(C)CC(O)Cn1cc(/C=C/C(=O)c2ccc(OC)c(OC)c2)c2ccccc21 (configuration not stated),inactive: 67%
7,CCCn1ccc2c(OCC(=O)NCc3ccc(F)cc3)cccc2c1=O,inactive: 55%
8,CCc1cc2c(cc3c(=O)n(CC(=O)N4CCCCC4)nc(CC)n32)s1,inactive: 77%
9,COc1ccc(Cl)cc1C(=O)Nc1ccc2oc(-c3ccc(C(C)(C)C)cc3)nc2c1,inactive: 82%
10,C#CCOc1nc(OCC#C)nc(N(c2ccccc2)c2ccccc2)n1,inactive: 48%
11,CCN1CCN(C(=O)c2ccc3c(c2)N(Cc2ccccc2)C(=O)c2ccccc2S3=O)CC1 (configuration not stated),inactive: 104%
12,CN1C(=O)SC(Nc2ccccc2)C1=O (configuration not stated),inactive: 65%
13,CN(C)c1ccc(-c2nnc(-c3ccc(S(=O)(=O)C(F)F)cc3)o2)cc1,inactive: 61%
14,CCOc1ccc(CNCc2c(C(=O)O)c(C)n(Cc3ccc(F)cc3Cl)c2C)cc1,inactive: 118%
15,COc1ccc(OC)c(-c2nc(C(N)=O)c3c(n2)n(-c2ccc4c(c2)OCO4)c(=O)n3C)c1,inactive: 84%
16,Cc1nn(CCCC(=O)NCc2cccc(F)c2)c(=O)c2nn(-c3ccccc3)c(C)c12,inactive: 83%
17,CCOC(=O)c1c(S(=O)(=O)NCC(=O)Nc2ccc(Cl)c(C(F)(F)F)c2)c(C)n(C)c1C,inactive: 62%
18,CCCCc1nn2c(=O)cc(COC(=O)c3cccc(NC(=O)c4cccc(C)c4)c3)nc2s1,inactive: 89%
19,Cc1ccc2[nH]c(=O)c(CN(Cc3cccnc3)S(=O)(=O)c3ccccc3)cc2c1,inactive: 97%
20,CC(C)(C)Sc1ccc(SC#N)s1,active: 1%
21,COc1cccc(NC(=O)CN(Cc2ccccc2)S(=O)(=O)c2ccc3nc(C)sc3c2)c1,inactive: 112%
22,CSc1ncc(Cl)c(C(=O)Nc2nc3ccc(F)cc3s2)n1,inactive: 98%
23,CCCCNC(=O)CN1C(=O)CSc2ccc(S(=O)(=O)N3CCC(C)CC3)cc21,inactive: 82%

row,SMILES,survival
1,Cc1ccc(NC(=O)CN(C)S(=O)(=O)c2ccc3c(c2)CCC(=O)N3)c(C)c1,inactive: 85%
2,Cc1ccc(CN2CCCn3nc(C(=O)NCc4ccccc4Cl)cc3C2=O)cc1,inactive: 69%
3,COc1ccccc1-c1noc(-c2ccc(N(C)Cc3ccccc3)c([N+](=O)[O-])c2)n1,active: 36%
4,Cc1ccc(NC(=O)Cn2nc(-c3ccc(F)cc3)c3cnc4ccc(C)cc4c32)cc1,inactive: 124%
5,COc1ccccc1C(=O)c1c(N)c(-c2nc(-c3ccccc3)cs2)c2ccccn12,inactive: 110%
6,CCCCN(CC)C(=O)CCn1c(=O)c2cccn2c2cccnc21,inactive: 70%
7,CC(=O)Nc1ccc(C)cc1-c1nc2ccccc2n(CC(=O)c2ccc(Cl)cc2)c1=O,inactive: 82%
8,COC(=O)c1cc2oc3ccccc3c2n1CC(=O)Nc1cc(OC)cc(OC)c1,inactive: 61%
9,CC(C)(C)c1nn(-c2ccccc2)c2[nH]c(=O)c(CNc3ccc4c(c3)OCO4)cc12,inactive: 86%
10,CC(=O)N(Cc1cccnc1)c1nc2ccc(F)cc2s1,inactive: 81%
11,COc1cccc2cc(-c3cn4c(n3)sc3cc(F)ccc34)c(=O)oc12,inactive: 60%
12,CCOc1ccc(N2CC(C#N)=C3c4cc(OC)c(OC)cc4CCN3C2)cc1,inactive: 101%
13,Cc1ccc(-n2nnnc2CNC(=O)c2ccc(F)cc2)cc1C,inactive: 106%
14,COc1ccccc1-c1nn2c(=O)cc(CN3CCN(S(=O)(=O)c4ccc(C)cc4)CC3)nc2s1,inactive: 95%
15,CCOC(=O)c1ccc(NC(=O)C2Cc3ccccc3C(=O)O2)cc1 (configuration not stated),inactive: 54%
16,Clc1cccc(N2CCN(c3ncnc4c3nc3n4CCCC3)CC2)c1,inactive: 114%
17,Brc1ccc(CNCCCSc2nnnn2-c2ccccc2)cc1,inactive: 69%
18,Cc1cccc(-c2noc(CNC(=O)c3ccco3)n2)c1,inactive: 83%
19,COc1ccc(CCNC(=O)c2c(C)oc3nc(C)nc(N4CCOCC4)c23)cc1OC,inactive: 102%
20,Cc1ccc(NC(=O)C2CCCN(S(=O)(=O)c3cccc4cccnc34)C2)c(Br)c1 (configuration not stated),inactive: 75%
21,N#Cc1c2c(c(Nc3ccc(O)cc3)n3c1nc1ccccc13)CCC2,inactive: 97%
22,Cc1onc(-c2ccccc2Cl)c1C(=O)Oc1ccc(Br)cc1,active: 41%
23,Cn1cc(S(=O)(=O)N2CCCCCC2)cc1C(=O)NCc1ccc(Cl)cc1,inactive: 94%

row,SMILES,survival
1,CC1=C(C(=O)Nc2ccccc2)C(c2cccc(O)c2)n2nc(-c3ccccc3Cl)nc2N1 (configuration not stated),inactive: 74%
2,CCN1CCOC(=O)C1CC(=O)Nc1cccc(OC)c1 (configuration not stated),inactive: 57%
3,C#CCNc1nc(CC(C)C)nc2c1nnn2Cc1ccccc1,inactive: 88%
4,CCOc1ccccc1C(=O)N1CCN(CCc2ccccn2)CC1,active: 67%
5,Cc1ccc(C2=Nc3ccccc3N(CC(=O)Nc3ccccc3C)C(=O)C2)cc1C,inactive: 87%
6,Cc1c(Cl)cccc1NC(=O)Cn1nc(C(F)(F)F)c2c1CCC2,inactive: 73%
7,Cc1ccc(N2CCn3c2nc2c3c(=O)n(CCCc3ccccc3)c(=O)n2C)cc1,inactive: 81%
8,O=C1CCCCCN1Sc1ccccc1,active: 48%
9,COc1ccc(OC)c(CNC(=O)c2ccccc2NC(=O)c2nsc3ccccc23)c1,inactive: 92%
10,Cc1cc(C)c(NC(=O)Cn2c(=O)n(CCc3ccccc3)c(=O)c3ccccc32)c(C)c1,inactive: 108%
11,Cc1cccc(-c2nc(SCC(=O)NCC3CCCO3)c3c(=O)n(C)c(=O)n(C)c3n2)c1 (configuration not stated),inactive: 120%
12,Cc1ccccc1N(C)C(=O)c1noc2c1COc1ccccc1-2,inactive: 72%
13,CCOC(=O)c1ccc(NC(=O)Nc2ccc3snnc3c2)cc1,inactive: 114%
14,C=Cn1cc[n+](CC(=O)c2ccc(OC)cc2)c1,inactive: 77%
15,C#CCn1c(/C=C/c2ccc(Cl)cc2)nc2ccccc21,active: 10%
16,COc1ccc(S(=O)(=O)NNC(N)=S)cc1,inactive: 100%
17,Cc1ccccc1NC(=O)N1CCCC(c2nc(-c3ccc(F)cc3)no2)C1 (configuration not stated),inactive: 93%
18,CCN(c1ccc(OC)cc1)S(=O)(=O)c1nnc(NC(=O)COc2ccc(F)cc2)s1,inactive: 70%
19,CC(C)CC(=O)NCC(c1ccc2c(c1)OCO2)N1CCN(c2ccccc2F)CC1 (configuration not stated),inactive: 67%
20,Cc1ccc(-n2nc(C(=O)N3CCN(c4ccccc4F)CC3)c3c4ccccc4n(C)c3c2=O)cc1,inactive: 88%
21,COc1cccc(CNC(=O)CN2N=C(c3ccc(C)cc3)CCC2=O)c1,inactive: 83%
22,CCC(C(=O)N1CCN(c2cc(Cl)ccc2C)CC1)n1nc(C)c2sc3ccccc3c2c1=O (configuration not stated),inactive: 60%
23,Cc1ccc(N(C)S(=O)(=O)c2ccc3c(c2)C(C)(C)C(=O)N3C)cc1C,inactive: 80%

row,SMILES,survival
1,O=C(NCc1ccccc1Cl)c1cccn1-c1nnc(N2CCCCC2)s1,inactive: 64%
2,CCN(CC)CCCNC(=O)CCCn1c(=O)[nH]c2ccc(Br)cc2c1=O,inactive: 88%
3,CC(=O)c1ccccc1NS(=O)(=O)c1cc2c(cc1C)NC(=O)CO2,inactive: 105%
4,O=C(CCn1c(=O)c2cccn2c2cccnc21)NCc1ccccc1Br,inactive: 81%
5,CCC(=O)Nc1ccc(C)cc1-c1nc2ccccc2n(C(C)C(=O)Nc2ccccc2CC)c1=O (configuration not stated),inactive: 83%
6,CCC(CC)C(=O)Nc1ccc(C(=O)OCc2cc(=O)n3nc(C4CC4)sc3n2)cc1,inactive: 80%
7,CN1C(=O)c2ccccc2Sc2ccc(NC(=O)Cc3c(F)cccc3Cl)cc21,inactive: 84%
8,COc1ccc(Cn2cc(C(=O)c3ccc(C)c(C)c3)c(=O)c3ccccc32)cc1,inactive: 72%
9,CCCCC12CN3CC(C)(CN(C1)C3c1ccc(O)c(OC)c1)C2=O (configuration not stated),inactive: 70%
10,CCOc1ccc(CCNC(=O)c2cc(C)nc3c2c(C)nn3-c2cccc(F)c2)cc1,inactive: 96%
11,COc1ccc(CNCCC(c2ccc3c(c2)OCO3)c2ccccc2OC)cc1 (configuration not stated),active: 1%
12,O=C(Cn1cc(S(=O)(=O)Cc2cccc(Cl)c2)c2ccccc21)Nc1ccccc1Cl,inactive: 68%
13,COc1cccc(NC(=O)CSc2nccn2C2CCCC2)c1,inactive: 67%
14,CC(CNC(=O)c1nnc(Cc2ccc(F)cc2)o1)c1ccccc1 (configuration not stated),inactive: 73%
15,Cc1ccc(-n2nc3c(=O)n(CC(=O)NCCC(C)C)nc(C)c3c2C)cc1,inactive: 73%
16,COc1cc2ncc(C(=O)c3ccc(C)cc3)c(N3CCCCC3)c2cc1OC,active: 2%
17,COCCCNC(=O)Cn1c(=O)nc(-c2ccccc2)c2ccccc21,inactive: 78%
18,O=C1CC(NC2CC2)C(=O)N1c1ccccc1 (configuration not stated),inactive: 93%
19,O=C(NCc1cccc(Br)c1)c1ccc(NC(=O)N2CCCCc3ccccc32)cc1,inactive: 87%
20,COc1ccc(N2CCN(Cc3nc4c(c(=O)[nH]c(=O)n4C)n3CC(C)C)CC2)cc1,inactive: 123%
21,CCCCCCNc1nc(Oc2ccccc2)nc(Oc2ccccc2)n1,inactive: 62%
22,NC(=O)C1CCN(C(=O)Cc2ccc(Cl)cc2)CC1,inactive: 97%
23,Cc1ccc(S(=O)(=O)c2nnn3c2nc(NCCc2ccccc2)c2sccc23)cc1,inactive: 65%
